To fix the notation:
B1: chr6:15520333:15520434:+|3pUTR|ENSG00000008083|unk|total|mutant (ssRNA)
RNA: GGGAGUUCUACAGUCCGACGAUCCUUGCUGCCGGAUUCAAGCUGUCUUUGCACCCGCUCUAAAGAAGAUUUUCUUCUGGUUUCCGAGAACUAAUUUUGUUUCCGCAUUAAACUGUUGAACUUUUUUUUGUACUCCGAAAACCUCAACAGAGGAUUGAGCAUCA
B2: chr7:56058368:56058516:+|CDS|ENSG00000146731|unk|total|mutant (ssRNA)
RNA: GGGAGUUCUACAGUCCGACGAUCUACAAGAGUGCAGAAGAGAGAGAAAAACUCGUGAAAGCUGAAAGAAAAUUCAUUGAAGACCGGGUUAAAAAAAUAACCGAACUGAAAAGGAAAGUCUGUGGCGAUUCAGAUAAAGGAUUUCAACAGAGGAUUGAGCAUCA
B3: chr13:99866285:99866388:+|CDS|ENSG00000125246|unk|total|mutant (ssRNA)
RNA: GGGAGUUCUACAGUCCGACGAUCUAUUCUCUACGCCCGGCAAAAGAUUGUUGUCACCGCGAAAGCCUUUGGUCUCCAAGCCACCGAUCUGGUGUACAUUGACUUUCGAGAUGGAGCUGGGCUGCUCCGACAGUCACGAGAAGGCAACAGAGGAUUGAGCAUCA
B4: chr16:84129640:84129741:-|CDS|ENSG00000103160|unk|total|mutant (ssRNA)
RNA: GGGAGUUCUACAGUCCGACGAUCCUUGCAAUAUGAAUAUGCCUCUAAAGGAAUCUUUGUACAGAGUCUAAUCCCUUUCUAUGCCGCCACCAGCAUGACAGCACCCAGCAACUUUCUGCACAGGUGCUCGUGGUUGGUGCCUUCCAACAGAGGAUUGAGCAUCA
B5: chr19:42297191:42297292:-|CDS|ENSG00000079462|unk|total|mutant (ssRNA)
RNA: GGGAGUUCUACAGUCCGACGAUCCCGACAGGUGAACGAGCUGGUACGGGCGGCACUGGCUGGCCACCCUCGGGCCCACUUCCCCGAUGCCGACCCUGGCUUUGUGCACUCAGAUGGCACCAUCAGCCAUCAUGACAUGUAUGACAACAGAGGAUUGAGCAUCA
B6: chr7:39987650:39987751:+|CDS|ENSG00000065883|unk|FALSE|unique (ssRNA)
RNA: GGGAGUUCUACAGUCCGACGAUCUCUAGGCAUUCAAGAUCUCGUAGCAGGCACAGAUUGUCUAGAUCCAGAAGUCGUCAUUCUAGUAUUUCUCCUAGCACACUAACUCUGAAGAGUAGCCUGGCAGCUGAAUUGAACAAGAAUCAACAGAGGAUUGAGCAUCA
B7: chr1:48532853:48534172:-|three_prime_utr|ENSG00000186094|control|control|control (ssRNA)
RNA: GGGAGUUCUACAGUCCGACGAUCGUCUUAUGGGGACAGGAGCAUGCAUUUUCUGCUGGGGAAUGAAAUUAAUCACUCUUCUCUAGCUUCCAAGGAUUUGUGGAUUAAUGCAUAGGCUAGUGAAAGGGAAGGGAUACAAUGAGACAACAGAGGAUUGAGCAUCA
B8: ENSG00000182446:stop:overlap|stop_codon|ENSG00000182446|stop_codon|NA|stop_codon (ssRNA)
RNA: GGGAGUUCUACAGUCCGACGAUCGCACGUUCAUGAACCAGCCAGGCACAGGCCACUGCGAGAUGUGCAGCCUCCCCAGGACCUAGGGCGCCUGCCCUCUGCUGGCUAGGACCGGGCCCAGCCCAGCCCUUCCUGAAGCCAGAACAACAGAGGAUUGAGCAUCA
B9: chr17:28717212:28717708:-|CDS|ENSG00000109113|control|control|control (ssRNA)
RNA: GGGAGUUCUACAGUCCGACGAUCGGUGGUCGUAGCGUCUCCGAGACCGCGGACUCCCGUAGGGUCCCCGUGGCCCCGAGUUGUAGUCGGGACACCCCGGCCGCGGGUGAUCGUCGGGUCUCCACGCGCCCGGGUCGCUGACGCCAACAGAGGAUUGAGCAUCA
B10: chr22:29695108:29695209:+|3pUTR|ENSG00000186575|msi1|total|mutant (ssRNA)
RNA: GGGAGUUCUACAGUCCGACGAUCGUGUGUGUGUGUCUUGCACUCCAGAGCUGACCUCCACCGCCCAGCCUGGGAAGUCAUUGCCGGGAGUGAGACACUGAAGCCCUGAGAAGCCAGUGCCAUCAUCCCCACCCCGCCCAGGGUCAACAGAGGAUUGAGCAUCA
B11: chr7:100040983:100041096:+|3pUTR|ENSG00000106261|unk|FALSE|bound_elsewhere (ssRNA)
RNA: GGGAGUUCUACAGUCCGACGAUCGAUAGCCAAGCAAAAUCAGUAAUUAUUUUAAAAUGAACAUAUGUAUUUUUAUUAACUUUUAGUUAAAUACAGAUUUUACAACGAGGUCAGCAUAAGCCUAAAUCUAUAUAGAGGGCUAACCAACAGAGGAUUGAGCAUCA
B12: chr3:94060950:94061511:-|CDS|ENSG00000178700|control|control|control (ssRNA)
RNA: GGGAGUUCUACAGUCCGACGAUCAGUAGACAUGAUUUGGAUAGUUGGUGGCAGUUCUGUUUAUAAGGAAGCCAUGAAUCACCUAGGCCAUCUUAAACUAUUUGUGACAAGGAUCAUGCAGGACUUUGAAAGUGACACGUUUUUCAACAGAGGAUUGAGCAUCA
B13: chr4:41699229:41699330:+|3pUTR|ENSG00000064042|msi1|FALSE|unique (ssRNA)
RNA: GGGAGUUCUACAGUCCGACGAUCGAUUACAUGAAUAUUGCACAUUCCCUUCUGGUUUCACAAACCCAUUUAUACAUAUUUCUUAGUGAGGCUCAUUGUACAUGUAUUGAAGCUAGAAUCGAGUCAAGAAAAAUAAAGCCCCAUCAACAGAGGAUUGAGCAUCA
B14: ENSG00000198589:be:win_7651|CDS|ENSG00000198589|bound_else_gene|NA|bound_elsewhere_windowed (ssRNA)
RNA: GGGAGUUCUACAGUCCGACGAUCGACCAGCCAUACCAGCUGCCAGUGGAAAUCGAUCCUCUCAUAGCCAGCAAUACAGGAAUGCACAGGAGGCAAAUCACUGACCUUUUAGACCAAAGUAUUCAAGUGCAUUCCCAGUGCUUUCAACAGAGGAUUGAGCAUCA
B15: chr17:28897780:28898440:-|three_prime_utr|ENSG00000167536|control|control|control (ssRNA)
RNA: GGGAGUUCUACAGUCCGACGAUCUGAAGGAAUAAUGGGUGAUUAUUUCUUCCUGAGAGUGACAGUAACCCCAGAUGGAGAGAUAGGGGUAUGCUAGACACUGUGCUUCUCGGAAAUUUGGAUGUAGUAUUUUCAGGCCCCACCCAACAGAGGAUUGAGCAUCA
B16: chr9:121180810:121180911:-|3pUTR|ENSG00000119396|msi1|total|mutant (ssRNA)
RNA: GGGAGUUCUACAGUCCGACGAUCUUUGGAUAAAUUUCCUGUUGUGUGGGUGGCAUUUUUCUUAACGAGAUUUGCUUCUGUCUCCGCCUCACACAGGGAAAAUAUCCAUUUAUCUUCUCUCUCGUGCUUAAUUAACCGCUUUAUCAACAGAGGAUUGAGCAUCA
B17: chr1:213241217:213241334:+|CDS|ENSG00000136643|unk|total|mutant (ssRNA)
RNA: GGGAGUUCUACAGUCCGACGAUCAGUUCUCCAAGAACAUCAGAUUCCCUCAGCCGAUCAAAAAACCGCCCCAUGGAAUUCUUCCGGACCGACAGUAAGGACCGCGCAAGUGAACUCCUGGGACUUGACUUUGGAGAAAAAUUGCAACAGAGGAUUGAGCAUCA
B18: ENSG00000050165:stop:overlap|stop_codon|ENSG00000050165|stop_codon|NA|stop_codon (ssRNA)
RNA: GGGAGUUCUACAGUCCGACGAUCAGAUGGCGCUGAGGGAGCCUGCGGCUGCCGCCGCUGCACUGCUGGGAGGGGAAGAGAUUUAGAUCUGGACCAGGCUGUGGGUAGAUGUGCAAUAGAAAUAGCUAAUUUAUUUCCCCAGGUCAACAGAGGAUUGAGCAUCA
B19: chr6:75256125:75256201:-|CDS_3pUTR|ENSG00000112697|msi1_unk|FALSE|overlapping (ssRNA)
RNA: GGGAGUUCUACAGUCCGACGAUCUUUGGGGAUUGCUUACAUCGCUGUUGGAUCCAUCUCCUUCCUUCUGGGAGUUGUACUGCUAGUAAUUAAUCAUAAAUAUAGAAACAGUAGUAAUACAGCUGACAUUACCAUUUAAUUUUACAACAGAGGAUUGAGCAUCA
B20: ENSG00000107863:be:win_2901|CDS|ENSG00000107863|bound_else_gene|NA|bound_elsewhere_windowed (ssRNA)
RNA: GGGAGUUCUACAGUCCGACGAUCUCAUUCACUUUACCUGUACAAAGAUAAAAGAGAGCAGACGACUCCGUCUGAGGAAGAGCAGCCCAUCAGUGUUAAUGCUUGCUUGAUAGACAUCUCUUACAGUGAGACCAAGAGGAAAAACAACAGAGGAUUGAGCAUCA
B21: chr3:10940499:10940600:+|3pUTR|ENSG00000132164|unk|total|mutant (ssRNA)
RNA: GGGAGUUCUACAGUCCGACGAUCGGGGAGGGCAAUGUGGGGGCAGGGGAACAUGUCAUUGUGAUGACUUUUUUGAUAUUCAUCCGAAACAAUACAUCCUUUCUGAGAUAUUUACAGUAUUAUUAAAAAAUGAAAAAGGUUGUACAACAGAGGAUUGAGCAUCA
B22: chr5:74627411:74627511:-|3pUTR|ENSG00000171617|msi1_unk|FALSE|overlapping (ssRNA)
RNA: GGGAGUUCUACAGUCCGACGAUCUUUGUAAAACUGUUAUUUUUUUUUUUUUCACAAUGUGAAACUGAAGGUCAAUAAAUUAUUAGAGAUUUUCUCUUCAUUAUGUGUGUGGGUCUUCAUUUGAAUAAGACACAAUUUGAGGCACAACAGAGGAUUGAGCAUCA

The list shows a part of the results.

The target in the assay is MSI1 full-length (mouse, UniProt Q61474 1-362). In words: nsRBNS (natural sequence RNA bind-n-seq); RBNS binding buffer (assumed for nsRBNS): 25 mM Tris pH 7.5, 150 mM KCl, 3 mM MgCl2, 0.01% Triton X-100, 500 ug/ml BSA, 20 U/ml SUPERase-In, 4 C; UNK is unkempt and MSI1 is Musashi-1; names of the RNAs are library labels; protein concentration not given here; high values mean tight binding.
Sequence of UniProt Q61474 (Q61474 whole entry): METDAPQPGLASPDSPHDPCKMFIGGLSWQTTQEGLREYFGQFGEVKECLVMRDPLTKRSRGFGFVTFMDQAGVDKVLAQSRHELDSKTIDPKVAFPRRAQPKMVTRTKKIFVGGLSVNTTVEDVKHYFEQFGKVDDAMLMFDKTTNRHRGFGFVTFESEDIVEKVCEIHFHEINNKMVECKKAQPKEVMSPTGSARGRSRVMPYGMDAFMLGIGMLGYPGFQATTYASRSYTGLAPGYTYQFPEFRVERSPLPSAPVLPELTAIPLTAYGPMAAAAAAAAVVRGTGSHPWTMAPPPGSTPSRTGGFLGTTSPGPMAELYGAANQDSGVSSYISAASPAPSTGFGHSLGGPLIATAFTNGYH
B1 displayed a binding signal of 0.382 enrichment R.
As for B2, the binding signal amounted to 0.292 enrichment R.
The same measure for B3: 0.244 enrichment R.
As for B4, the binding signal amounted to 0.286 enrichment R.
With B5, the binding signal was found to be 0.284 enrichment R.
To B6 belongs 0.357 enrichment R.
The same measure for B7: 0.726 enrichment R; for B8: 0.246 enrichment R; for B9: 0.566 enrichment R.
Regarding B10, the binding signal came to 0.483 enrichment R.
The same measure for B11: 7.14 enrichment R; for B12: 0.444 enrichment R; for B13: 4.08 enrichment R.
Regarding B14, the binding signal was determined as 0.938 enrichment R.
The same measure for B15: 0.525 enrichment R; for B16: 0.522 enrichment R.
To B17 belongs 0.533 enrichment R; to B18, 3.27 enrichment R.
In turn, B19 yielded a binding signal of 18.4 enrichment R.
To B20 belongs 0.536 enrichment R.
Molecule B21 showed a binding signal of 2.1 enrichment R.
To B22 belongs 0.47 enrichment R.

(Values after paper PMC12136788.)
